Like-named read-outs stand apart in the source and are kept apart here. These are yes or no findings as the source states them, for the method shown. For some of these results: In cells and extracts the contact can be indirect. Some entries that bind do so weakly or less than the wild type. For some of these results: Tags and fused reporters may be left off the sequences shown.
T1: MurD synthetase (Rv2155c) of Mycobacterium tuberculosis, M-PFC fusion (Mycobacterium tuberculosis H37Rv) (UniProt P9WJL5)
T1 sequence: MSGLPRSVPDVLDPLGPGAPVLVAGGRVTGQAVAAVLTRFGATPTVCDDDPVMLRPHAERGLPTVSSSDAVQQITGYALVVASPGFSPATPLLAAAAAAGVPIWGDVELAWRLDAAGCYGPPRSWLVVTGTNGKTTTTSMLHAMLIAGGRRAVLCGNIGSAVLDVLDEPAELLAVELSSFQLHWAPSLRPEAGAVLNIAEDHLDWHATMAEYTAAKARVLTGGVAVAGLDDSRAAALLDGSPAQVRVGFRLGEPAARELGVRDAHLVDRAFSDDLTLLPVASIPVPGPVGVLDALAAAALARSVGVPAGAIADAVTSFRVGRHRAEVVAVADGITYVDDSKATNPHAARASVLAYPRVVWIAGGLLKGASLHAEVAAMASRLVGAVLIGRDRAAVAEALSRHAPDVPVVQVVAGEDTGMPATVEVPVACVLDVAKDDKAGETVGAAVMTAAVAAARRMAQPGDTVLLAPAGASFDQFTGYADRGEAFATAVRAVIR

T2: MurC synthetase (Rv2152c) of Mycobacterium tuberculosis, M-PFC fusion (Mycobacterium tuberculosis H37Rv) (UniProt P9WJL7)
T2 sequence: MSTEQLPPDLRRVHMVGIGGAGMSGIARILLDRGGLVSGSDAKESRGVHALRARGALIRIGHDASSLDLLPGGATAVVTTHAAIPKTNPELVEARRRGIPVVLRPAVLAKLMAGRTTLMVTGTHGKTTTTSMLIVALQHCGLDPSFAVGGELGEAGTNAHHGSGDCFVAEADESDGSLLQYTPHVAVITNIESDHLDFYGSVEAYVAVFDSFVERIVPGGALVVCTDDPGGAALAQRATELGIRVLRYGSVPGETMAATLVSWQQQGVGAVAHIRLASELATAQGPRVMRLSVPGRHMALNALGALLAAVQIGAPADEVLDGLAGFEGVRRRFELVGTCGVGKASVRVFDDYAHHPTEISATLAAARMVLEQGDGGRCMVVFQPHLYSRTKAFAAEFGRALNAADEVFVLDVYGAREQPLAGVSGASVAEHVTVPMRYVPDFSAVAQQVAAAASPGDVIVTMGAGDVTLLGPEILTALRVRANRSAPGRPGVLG

T3: arylamine N-acetyltransferase/Nat (Rv3566) of Mycobacterium tuberculosis, M-PFC fusion (Mycobacterium tuberculosis H37Rv) (UniProt P9WJI5)
T3 sequence: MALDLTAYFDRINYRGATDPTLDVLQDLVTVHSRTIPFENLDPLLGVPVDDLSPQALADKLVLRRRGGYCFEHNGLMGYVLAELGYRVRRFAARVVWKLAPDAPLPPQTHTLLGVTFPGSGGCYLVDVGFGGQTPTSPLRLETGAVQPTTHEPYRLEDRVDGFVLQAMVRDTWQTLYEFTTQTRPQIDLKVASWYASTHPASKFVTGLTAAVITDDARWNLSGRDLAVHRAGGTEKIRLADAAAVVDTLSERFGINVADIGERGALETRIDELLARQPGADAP

T4: MurF synthetase (Rv2157c) of Mycobacterium tuberculosis, M-PFC fusion (Mycobacterium tuberculosis H37Rv) (UniProt P9WJL1)
T4 sequence: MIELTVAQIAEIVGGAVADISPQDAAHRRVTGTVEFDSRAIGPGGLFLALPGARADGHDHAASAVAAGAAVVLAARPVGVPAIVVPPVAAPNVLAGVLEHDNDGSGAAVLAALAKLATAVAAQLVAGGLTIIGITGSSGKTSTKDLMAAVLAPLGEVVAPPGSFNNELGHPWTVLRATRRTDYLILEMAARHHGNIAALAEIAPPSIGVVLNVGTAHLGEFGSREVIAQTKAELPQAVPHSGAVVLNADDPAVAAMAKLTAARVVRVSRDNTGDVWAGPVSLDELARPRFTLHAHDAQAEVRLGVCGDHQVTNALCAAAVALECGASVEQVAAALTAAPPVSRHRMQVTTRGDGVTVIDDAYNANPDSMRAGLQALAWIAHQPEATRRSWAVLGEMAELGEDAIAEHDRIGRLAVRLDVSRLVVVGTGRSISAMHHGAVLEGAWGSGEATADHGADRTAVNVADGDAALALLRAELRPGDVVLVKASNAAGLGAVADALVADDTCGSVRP

T5: MurE synthetase (Rv2158c) of Mycobacterium tuberculosis, M-PFC fusion (Mycobacterium tuberculosis H37Rv) (UniProt P9WJL3)
T5 sequence: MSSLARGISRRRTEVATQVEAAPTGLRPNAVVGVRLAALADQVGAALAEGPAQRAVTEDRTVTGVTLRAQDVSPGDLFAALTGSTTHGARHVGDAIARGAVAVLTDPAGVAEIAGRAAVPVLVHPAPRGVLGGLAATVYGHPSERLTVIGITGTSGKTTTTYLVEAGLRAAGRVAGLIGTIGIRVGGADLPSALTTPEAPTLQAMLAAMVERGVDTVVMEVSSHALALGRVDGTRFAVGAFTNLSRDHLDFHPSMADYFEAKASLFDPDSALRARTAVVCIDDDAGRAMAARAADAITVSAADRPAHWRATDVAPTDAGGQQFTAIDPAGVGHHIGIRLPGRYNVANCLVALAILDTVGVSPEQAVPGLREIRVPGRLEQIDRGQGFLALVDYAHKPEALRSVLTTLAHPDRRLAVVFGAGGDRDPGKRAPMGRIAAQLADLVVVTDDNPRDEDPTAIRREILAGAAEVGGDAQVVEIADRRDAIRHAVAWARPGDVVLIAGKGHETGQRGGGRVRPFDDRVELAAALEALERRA


Experiments:
[1] = biological target: T1, MurD synthetase (Rv2155c) of Mycobacterium tuberculosis, M-PFC fusion (Mycobacterium tuberculosis H37Rv); experiment: split reporter
[2] = biological target: T2, MurC synthetase (Rv2152c) of Mycobacterium tuberculosis, M-PFC fusion (Mycobacterium tuberculosis H37Rv); experiment: split reporter
[3] = biological target: T3, arylamine N-acetyltransferase/Nat (Rv3566) of Mycobacterium tuberculosis, M-PFC fusion (Mycobacterium tuberculosis H37Rv); experiment: split reporter
[4] = biological target: T4, MurF synthetase (Rv2157c) of Mycobacterium tuberculosis, M-PFC fusion (Mycobacterium tuberculosis H37Rv); experiment: split reporter
[5] = biological target: T5, MurE synthetase (Rv2158c) of Mycobacterium tuberculosis, M-PFC fusion (Mycobacterium tuberculosis H37Rv); experiment: split reporter
[6] = biological target: purified recombinant M. tuberculosis MurC synthetase (Mycobacterium tuberculosis H37Rv) (UniProt P9WJL7); experiment: SEC; both purified
[7] = biological target: T1, MurD synthetase (Rv2155c) of Mycobacterium tuberculosis, M-PFC fusion (Mycobacterium tuberculosis H37Rv); experiment: split reporter; remark: listed apart in the source
[8] = biological target: T2, MurC synthetase (Rv2152c) of Mycobacterium tuberculosis, M-PFC fusion (Mycobacterium tuberculosis H37Rv); experiment: split reporter; remark: listed apart in the source
[9] = biological target: T3, arylamine N-acetyltransferase/Nat (Rv3566) of Mycobacterium tuberculosis, M-PFC fusion (Mycobacterium tuberculosis H37Rv); experiment: split reporter; remark: listed apart in the source
[10] = biological target: T4, MurF synthetase (Rv2157c) of Mycobacterium tuberculosis, M-PFC fusion (Mycobacterium tuberculosis H37Rv); experiment: split reporter; remark: listed apart in the source
[11] = biological target: T5, MurE synthetase (Rv2158c) of Mycobacterium tuberculosis, M-PFC fusion (Mycobacterium tuberculosis H37Rv); experiment: split reporter; remark: listed apart in the source
[12] = biological target: purified recombinant M. tuberculosis MurD synthetase (Mycobacterium tuberculosis) (UniProt P9WJL5); experiment: SEC; both purified
[13] = biological target: purified recombinant M. tuberculosis MurE synthetase (Mycobacterium tuberculosis) (UniProt P9WJL3); experiment: SEC; both purified

Molecule	binding [1]	binding [2]	binding [3]	binding [4]	binding [5]	further results
cell division protein FtsW (Rv2154c) of Mycobacterium tuberculosis, M-PFC fusion (from UniProt P9WN97 1-524)	binds	binds	no binding	binds	binds	
Rv2147c (ortholog of SepF) of Mycobacterium tuberculosis, M-PFC fusion (from UniProt P9WGJ5 1-218)	binds	binds	no binding	binds	binds	
cell division protein FtsQ (Rv2151c) of Mycobacterium tuberculosis, M-PFC fusion (from UniProt P9WNA1 1-314)	binds	binds	no binding	binds	binds	
purified recombinant M. tuberculosis MurC synthetase (enzyme, UniProt P9WJL7 1-494) MSTEQLPPDLRRVHMVGIGGAGMSGIARILLDRGGLVSGSDAKESRGVHALRARGALIRIGHDASSLDLLPGGATAVVTTHAAIPKTNPELVEARRRGIPVVLRPAVLAKLMAGRTTLMVTGTHGKTTTTSMLIVALQHCGLDPSFAVGGELGEAGTNAHHGSGDCFVAEADESDGSLLQYTPHVAVITNIESDHLDFYGSVEAYVAVFDSFVERIVPGGALVVCTDDPGGAALAQRATELGIRVLRYGSVPGETMAATLVSWQQQGVGAVAHIRLASELATAQGPRVMRLSVPGRHMALNALGALLAAVQIGAPADEVLDGLAGFEGVRRRFELVGTCGVGKASVRVFDDYAHHPTEISATLAAARMVLEQGDGGRCMVVFQPHLYSRTKAFAAEFGRALNAADEVFVLDVYGAREQPLAGVSGASVAEHVTVPMRYVPDFSAVAQQVAAAASPGDVIVTMGAGDVTLLGPEILTALRVRANRSAPGRPGVLG						binding [6]: no binding
cell division protein FtsZ (Rv2150c) of Mycobacterium tuberculosis, M-PFC fusion (protein, UniProt P9WN95 1-379) MTPPHNYLAVIKVVGIGGGGVNAVNRMIEQGLKGVEFIAINTDAQALLMSDADVKLDVGRDSTRGLGAGADPEVGRKAAEDAKDEIEELLRGADMVFVTAGEGGGTGTGGAPVVASIARKLGALTVGVVTRPFSFEGKRRSNQAENGIAALRESCDTLIVIPNDRLLQMGDAAVSLMDAFRSADEVLLNGVQGITDLITTPGLINVDFADVKGIMSGAGTALMGIGSARGEGRSLKAAEIAINSPLLEASMEGAQGVLMSIAGGSDLGLFEINEAASLVQDAAHPDANIIFGTVIDDSLGDEVRVTVIAAGFDVSGPGRKPVMGETGGAHRIESAKAGKLTSTLFEPVDAVSVPLHTNGATLSIGGDDDDVDVPPFMRR						binding [7]: binds; binding [8]: binds; binding [9]: no binding; binding [10]: binds; binding [11]: binds
purified recombinant M. tuberculosis MurD synthetase (enzyme, UniProt P9WJL5 1-496) MSGLPRSVPDVLDPLGPGAPVLVAGGRVTGQAVAAVLTRFGATPTVCDDDPVMLRPHAERGLPTVSSSDAVQQITGYALVVASPGFSPATPLLAAAAAAGVPIWGDVELAWRLDAAGCYGPPRSWLVVTGTNGKTTTTSMLHAMLIAGGRRAVLCGNIGSAVLDVLDEPAELLAVELSSFQLHWAPSLRPEAGAVLNIAEDHLDWHATMAEYTAAKARVLTGGVAVAGLDDSRAAALLDGSPAQVRVGFRLGEPAARELGVRDAHLVDRAFSDDLTLLPVASIPVPGPVGVLDALAAAALARSVGVPAGAIADAVTSFRVGRHRAEVVAVADGITYVDDSKATNPHAARASVLAYPRVVWIAGGLLKGASLHAEVAAMASRLVGAVLIGRDRAAVAEALSRHAPDVPVVQVVAGEDTGMPATVEVPVACVLDVAKDDKAGETVGAAVMTAAVAAARRMAQPGDTVLLAPAGASFDQFTGYADRGEAFATAVRAVIR						binding [12]: no binding
Wag31 (Rv2145c), homologue of DivIVA, of Mycobacterium tuberculosis, M-PFC fusion (protein, UniProt P9WMU1 1-260) MPLTPADVHNVAFSKPPIGKRGYNEDEVDAFLDLVENELTRLIEENSDLRQRINELDQELAAGGGAGVTPQATQAIPAYEPEPGKPAPAAVSAGMNEEQALKAARVLSLAQDTADRLTNTAKAESDKMLADARANAEQILGEARHTADATVAEARQRADAMLADAQSRSEAQLRQAQEKADALQADAERKHSEIMGTINQQRAVLEGRLEQLRTFEREYRTRLKTYLESQLEELGQRGSAAPVDSNADAGGFDQFNRGKN						binding [7]: binds; binding [8]: binds; binding [9]: no binding; binding [10]: binds; binding [11]: binds
purified recombinant M. tuberculosis MurE synthetase (enzyme, UniProt P9WJL3 1-535) MSSLARGISRRRTEVATQVEAAPTGLRPNAVVGVRLAALADQVGAALAEGPAQRAVTEDRTVTGVTLRAQDVSPGDLFAALTGSTTHGARHVGDAIARGAVAVLTDPAGVAEIAGRAAVPVLVHPAPRGVLGGLAATVYGHPSERLTVIGITGTSGKTTTTYLVEAGLRAAGRVAGLIGTIGIRVGGADLPSALTTPEAPTLQAMLAAMVERGVDTVVMEVSSHALALGRVDGTRFAVGAFTNLSRDHLDFHPSMADYFEAKASLFDPDSALRARTAVVCIDDDAGRAMAARAADAITVSAADRPAHWRATDVAPTDAGGQQFTAIDPAGVGHHIGIRLPGRYNVANCLVALAILDTVGVSPEQAVPGLREIRVPGRLEQIDRGQGFLALVDYAHKPEALRSVLTTLAHPDRRLAVVFGAGGDRDPGKRAPMGRIAAQLADLVVVTDDNPRDEDPTAIRREILAGAAEVGGDAQVVEIADRRDAIRHAVAWARPGDVVLIAGKGHETGQRGGGRVRPFDDRVELAAALEALERRA						binding [13]: no binding

Source: article PMC3605390, “Characterisation of ATP-Dependent Mur Ligases Involved in the Biogenesis of Cell Wall Peptidoglycan in Mycobacterium tuberculosis” (PLoS ONE, 2013)
